{"source": "patent US20220175781A1", "about": "“CD40L COMPOSITIONS AND METHODS FOR TUNABLE REGULATION” (Obsidian Therapeutics, Inc., priority 2019, published 2022)", "molecular_target": "CD40 (UniProt P25942)", "sequence (P25942 21-277 limits assumed)": "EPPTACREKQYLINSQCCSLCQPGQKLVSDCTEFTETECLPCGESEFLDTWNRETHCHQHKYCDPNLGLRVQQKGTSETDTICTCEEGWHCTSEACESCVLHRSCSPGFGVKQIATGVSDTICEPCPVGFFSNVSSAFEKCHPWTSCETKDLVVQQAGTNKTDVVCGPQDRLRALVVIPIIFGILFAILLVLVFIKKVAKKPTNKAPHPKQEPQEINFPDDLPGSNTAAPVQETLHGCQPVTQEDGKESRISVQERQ", "test": "cell-based or functional assay"}
{"binder": "OT-001685 (Met; FKBP (M1del, F37V, L107P); Flexible G/S rich linker; MH Linker; CD40L; stop) (ligand) [sequence of about 100 residues not given]GSMHMIETYNQTSPRSAATGLPISMKIFMYLLTVFLITQMIGSALFAVYLHRRLDKIEDERNLHEDFVFMKTIQRCNTGERSLSLLNCEEIKSQFEGFVKDIMLNKEETKKENSFEMQKGDQNPQIAAHVISEASSKTTSVLQWAEKGYYTMSNNLVTLENGKQLTVKRQGLYYIYAQVTFCSNREASSQAPFIASLCLKSPGRFERILLRAANTHSSAKPCGQQSIHLGGVFELQPGASVFVNVTDPSQVSHGTGFTSFGLLKL", "values": [{"measurement": "SEAP reporter of HEK-Blue CD40 cells co-cultured 24 hours with transduced Jurkat cells plus 1 µM Shield-1, given as Soluble CD40L (pg/ml) against a recombinant soluble CD40L standard", "result": 4830, "unit": "pg/mL"}]}
